Measurements taken from PubChem BioAssay AID686978 (National Center for Advancing Translational Sciences (NCATS), 2013).
About 64,000 (15%) of roughly 420,000 compounds were called active. Inconclusive means that the source gave no clear call. Such entries were picked first, then a sample of the others. Calls come from the whole dose curve; as a rule, active = well fitted inhibition curve with a large enough effect; inconclusive = small, poorly fitted or top-dose-only effect; inactive = flat fitted curve, though single readings scatter. Potencies of inconclusive entries are left out as doubtful fits.

assay: qHTS for Inhibitors of human tyrosyl-DNA phosphodiesterase 1 (TDP1): qHTS in cells in absence of CPT; details: DT40 Tdp1-/- hTDP1 cells, no CPT, ATP luminescence, 48 h; activity change, negative = growth inhibition: at 46.2 µM (top of the series) unless noted; note: nearly all actives have a fitted effect of over 55% in size
Summary of the method: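 Compound effects on proliferation are scored in DT40 Tdp1-/-;hTDP1 cells in the absence of CPT. ATP levels (CellTiter-Glo luminescence) are recorded after a ≥48 hr, 37 °C incubation.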
% is set by controls: 0 for no effect and ±100 for the full control effect; potency is the fitted concentration of half-maximal effect; tags give direction and shape of the fitted curve.

SMILES	Potency	activity change, negative = growth inhibition
O=S(=O)(c1cccc(Cl)c1)N1CCC(c2nc3ccccc3[nH]2)CC1	active: 18.4 µM	
Cc1ccc(OCCNC(=O)[C@H]2O[C@@H](n3cnc4c(N)ncnc43)[C@H](O)[C@@H]2O)cc1C		inactive: -27.9%
COc1cc(C(C)=O)ccc1Oc1ncnc2c1cnn2-c1ccc(F)cc1	active: 9.2 µM	
Cc1ccccc1CNC(=O)Cn1nc(C)c2nn(-c3ccc(Cl)cc3)c(C)c2c1=O	inconclusive [inhibitor, single point]	
CCn1c(SCC(=O)Nc2cc(OC)ccc2OC)nnc1C1CCCCC1		inactive: -24.7%
O=C(COc1ccccc1)N(CCc1ccccc1)c1nc(-c2ccc(F)cc2)cs1	inconclusive [inhibitor, partial curve]	
CC1(C)C(C=C(Cl)Cl)C1C(=O)N1CCN(c2ccccc2)CC1 (stereo not drawn)	inconclusive [inhibitor, single point]	
COc1cc(CN(C2CCCCC2)S(=O)(=O)c2ccc(S(=O)(=O)N(C)C3CCCCC3)cc2)cc(OC)c1OC	inconclusive [inhibitor, full curve]	
Cn1nc(C2CC2)cc1NC(=O)C1(C)CCN1C(=O)CCc1ccccc1 (stereo not drawn)		inactive: -20.4%
CCC1(c2ccc(F)cc2)NC(=O)N(CC(=O)NCc2ccc(C)cc2)C1=O (stereo not drawn)		inactive: -18.6%
COc1ccc(-c2csc(-n3cccn3)n2)cc1		inactive: 5.49%
N/C(=N\OC(=O)CCn1cccc(C(F)(F)F)c1=O)c1ccc(Cl)cc1	inconclusive [inhibitor, single point]	
CCCCNC(=O)c1ccc2nc(-c3cccs3)c(-c3cccs3)nc2c1	active: 20 µM	
CCCCOC(=O)c1ccc(NC(=O)C(=O)NCc2ccncc2)cc1	active: 23.1 µM	
CC1(CNC(=O)C(=O)NCC2(C)CO2)CO1 (stereo not drawn)	active: 1.64 µM	
COc1ccccc1/C=N/NC(=O)c1nnn(-c2nonc2N)c1CN(C)c1ccccc1	inconclusive [inhibitor, single point]	
COc1ccc(S(=O)(=O)N2CCN(Cc3ccccc3)CC2)cc1	inconclusive [inhibitor, single point]	
O=C(CSc1nc2[nH]ncc2c(=O)[nH]1)Nc1cccc([N+](=O)[O-])c1		inactive: -0.352%
CC1CCCN(Cc2nc3c(c(=O)n(C)c(=O)n3C)n2CCCc2ccccc2)C1 (stereo not drawn)	active: 18.4 µM	
CCCCC(=O)Nc1nc(C)c(-c2csc(Nc3cc(Cl)ccc3OC)n2)s1	inconclusive [inhibitor, partial curve]	
CCO[C@@H]1OC(C(N)=O)=C[C@H](C2CC2)[C@H]1CCCO		inactive: 7.26%
O=C(CCCCn1c(=O)c2ccccc2n(CC(=O)Nc2ccccc2)c1=O)NCc1ccco1		inactive: -19.3%
COc1ccc(CNCc2c(C(=O)O)c(C)n(Cc3ccccc3C)c2C)cc1OC		inactive: -0.861%
Cc1ccc(C)c(N2CCN(S(=O)(=O)c3ccc4[nH]c5c(c4c3)CCCC5)CC2)c1	inconclusive [inhibitor, single point]	

SMILES	Potency	activity change, negative = growth inhibition
COc1ccc(C(=O)N2CCOC2CNC(=O)C(=O)NCc2ccccc2)cc1 (stereo not drawn)	inconclusive [inhibitor, partial curve]	
CO/C([O-])=N/c1c[n+](-c2ccc(C)cc2)no1	inconclusive [inhibitor, partial curve]	
CSC(=NC#N)N1CCN(c2c(C)cccc2C)CC1	inconclusive [inhibitor, single point]	
COc1ccccc1N1CCN(c2nc3c(S(=O)(=O)c4ccccc4)nnn3c3ccc(Cl)cc23)CC1		inactive: -23.4%
CCOC(=O)c1scc(-c2ccccc2)c1S(=O)(=O)Nc1ccccc1OC	active: 20.6 µM	
CN1C(=O)C(=O)/C(=C(/O)c2ccccc2)C1c1ccc(Br)cc1 (stereo not drawn)	inconclusive [inhibitor, single point]	
CC(C)CC(C(=O)OCC(=O)N1CCN(c2ccccc2)CC1)N1C(=O)c2ccccc2C1=O (stereo not drawn)	inconclusive [inhibitor, single point]	
CC1CCCCC12NC(=O)N(CC(=O)Nc1ccc(N3CCOCC3)cc1)C2=O (stereo not drawn)		inactive: -6.97%
CC1=NN(c2ccccc2)C(=O)C1=Cc1ccccc1		inactive: -6.02%
N#Cc1nc(-c2ccc(COc3ccc(Cl)cc3)o2)oc1N1CCCCC1	inconclusive [inhibitor, single point]	
CN(c1ccccc1)S(=O)(=O)c1ccc(C(=O)N2CCN(c3ccccc3F)CC2)cc1	inconclusive [inhibitor, single point]	
O=C(CNS(=O)(=O)c1ccc(Cl)c(C(F)(F)F)c1)NC1CCCCCC1		inactive: -20.5%
CSc1ccc(CN2CCN(C(=O)c3ccc([N+](=O)[O-])cc3)CC2)cc1	active: 20.6 µM	
Clc1cccc(CN2CCCCCCC2)c1Cl	inconclusive [inhibitor, partial curve]	
O=C(N/N=C/c1ccc(Br)s1)Nc1ccccc1	inconclusive [inhibitor, single point]	
COc1ccc(CN2CCC[C@]3(N[C@H](c4ccccc4)[C@@H]4C(=O)N(C)C(=O)[C@@H]43)C2=O)cc1		inactive: -24.7%
C[C@@H]1CNCCN1S(=O)(=O)c1cccc2cnccc12	active: 29.9 µM	
NS(=O)(=O)c1ccc(Cc2ncc(C(F)(F)F)cc2Cl)s1	inconclusive [inhibitor, single point]	
COC(=O)[C@@]1(Sc2ccc(C)cc2)CC(=O)N[C@@H]1c1ccc(Br)cc1		inactive: -28.9%
Oc1ccccc1-c1ccn[nH]1		inactive: -16.9%
COC(=O)c1c(NC(=O)C(=O)N2CCCCC2)sc2c1CC(C)(C)OC2		inactive: 0.589%
COc1ccc(NC(=O)C23CC4CC(C2)CC(n2cnc(Br)n2)(C4)C3)cc1Cl	active: 23.1 µM	
C[C@]12C=CC(=O)C=C1CCC1C2CC[C@@]2(C)C1CCC21OCCO1 (stereo partly drawn)	inconclusive [inhibitor, single point]	
NC(=O)c1ncn([C@@H]2O[C@H](CNCc3ccc(OCC(=O)Nc4ccccn4)cc3)[C@@H](O)[C@H]2O)n1		inactive: -3.4%
